Laboratory results: PubChem BioAssay AID1347417 (National Center for Advancing Translational Sciences (NCATS), 2020)
Hit rate of the full screen: of about 120,000 compounds, about 5,300 (4.4%) were called active. The inconclusive results got no clear call from the source; some entries with a clear call stand among them for comparison. The call rests on the fitted dose curve; in most records, active means well fitted inhibition curve with a large enough effect; inconclusive means small, poorly fitted or top-dose-only effect; inactive means no such curve, though single readings can be large or run the other way. Where the call is inconclusive, the potency comes from a doubtful curve fit.
Potency means the concentration at half of the fitted maximal effect; tags describe the fitted curve by direction and shape.

Assay: qHTS Primary assay for Inhibitors of Plasmodium falciparum Dd2 growth in vitro; further: nearly all actives have a fitted effect of over 65% in size;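 on activity, negative = inhibition: plate controls were DMSO vehicle for no effect and reference drug for full effect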
Conditions: P. falciparum Dd2 growth, SYBR Green, 72 h; activity, negative = inhibition: at 28.9 µM (top of the series) unless noted; series mostly up to 28.9 µM
How it was run: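 Readout: SYBR Green fluorescence, 485 nm excitation, 535 nm emission, after ~16 h lysis at 37C. Before that, Dd2-infected red cells (2.5% hematocrit) grew 72 h with compound, 29 uM top final concentration.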
For `COc1ccc(NC(=O)O[C@@H]2CO[C@H]3[C@@H]2OC[C@@H]3NC(=O)c2ccco2)cc1`, the Potency was inconclusive: 5.62 µM [inhibitor, single point]. With `CCOCC1(C)COc2ccc(C(=O)Nc3ccc(Cl)cc3)cc2N1` (configuration not stated) the Potency was inconclusive: 3.55 µM [inhibitor, partial curve, poor fit]. For `COc1ccc(-c2cc3nc(C)c(CCC(=O)NC4CCCCC4)c(C)n3n2)c(OC)c1`, the Potency was inconclusive: 10 µM [inhibitor, single point]. For `COc1cccc(CNC(=O)C2CCN(C(=O)c3cc4c(=O)[nH]c(C)cn4n3)CC2)c1`, the Potency was inconclusive: 4.47 µM [inhibitor, partial curve, poor fit]. With `Cc1cccc(C)c1NC(=O)c1sc(-n2nc(C)c(Cc3ccccc3)c2C)nc1C` the Potency was inconclusive: 17.8 µM [inhibitor, single point]. With `CCn1nccc1C(=O)N1CC2CC(C1)[C@H]1CCCC(=O)N1C2` (some centres not stated) the “activity, negative = inhibition” value was inactive: 10.4%. With `O=C(O)c1cccc2c1CCN2C(=O)c1ccccc1` the “activity, negative = inhibition” value was inactive: -9.48%. For `COCC1CCN(c2ccc(-c3nc(CCCc4ccccc4)no3)cn2)C1` (configuration not stated), the Potency was inconclusive: 5.01 µM [inhibitor, partial curve, poor fit]. With `O=C(NCc1nnc2cc(-c3nc(C4CC4)no3)ccn12)c1cccnc1` the Potency was inconclusive: 10 µM [inhibitor, single point]. For `Cc1cnc(C2CC2)n1C1CCN(S(=O)(=O)c2ccc(C#N)cc2)CC1`, the Potency was inconclusive: 4.47 µM [inhibitor, partial curve]. In the case of `Cc1ccccc1CN1CCC2(CC1)OCCN(CCc1ccccc1)C2=O`, the “activity, negative = inhibition” value is reported as inactive: -8.98% [at 44.1 µM]. With `CSCC(=O)N1CC[C@H](NC(=O)NC2CCCCC2)[C@H]1C(=O)N1CCC[C@@H]1C(N)=O` the “activity, negative = inhibition” value was inactive: 32.1%. For `CN1CCCCCC(O)c2cc(C(=O)NC3CCCCC3)ccc21` (configuration not stated), the “outcome” value was “inactive”. With `C#CCNC(=O)C[C@@H]1c2nc(NC(=O)c3ccc(OC)cc3)sc2C[C@@H]2[C@](C)(CO)[C@H](O)CC[C@]21C` the Potency was inconclusive: 8.91 µM [inhibitor, partial curve, poor fit]. In the case of `CC(C)(C)C(=O)NCc1c[nH]c2ncccc12`, the Potency is reported as inconclusive: 12.6 µM [inhibitor, single point]. With `COc1ccc(NC(=O)[C@@H]2C[C@@H](c3ccc(F)cc3)N(CCOc3ccccc3)C2)cc1` the Potency was inconclusive: 11.2 µM [inhibitor, partial curve]. In the case of `Cc1ccccc1CN1C(=O)c2ccccc2S(=O)(=O)c2ccc(C(=O)OCC3CCCO3)cc21` (configuration not stated), the Potency is reported as inconclusive: 10 µM [inhibitor, single point]. In the case of `Cc1ccc(C(C)C)c(OC(C)C(=O)NCC2(N(C)C)CCCCC2)c1` (configuration not stated), the Potency is reported as inconclusive: 5.01 µM [inhibitor, partial curve, poor fit]. With `Cc1ccc(S(=O)(=O)N2CC[C@@H](CC(=O)O)[C@@H](CCN(CCN3CCOCC3)c3ccccc3)C2)cc1` the Potency was inconclusive: 3.55 µM [inhibitor, partial curve, poor fit]. In the case of `COc1cc(-c2nnc(SCCOc3cc(C)cc(C)c3)o2)cc(OC)c1OC`, the “activity, negative = inhibition” value is reported as inactive: 23.9%. With `NC(=O)c1ccc(CC2CCN(C(=O)C3CC3)CC2)cc1` the “activity, negative = inhibition” value was inactive: -12.2%. With `Cc1ccccc1CN1CCc2ncc(C(=O)Nc3ccccc3)n2CC1` the Potency was inconclusive: 8.91 µM [inhibitor, partial curve, poor fit]. In the case of `O=C1NC2(CCN(Cc3ccc(F)cc3)C2)COc2ccccc21` (configuration not stated), the Potency is reported as inconclusive: 11.2 µM [inhibitor, partial curve, poor fit]. For `CC(C)CC(=O)N1CCC(Oc2nccnc2N(C)C)C1` (configuration not stated), the “activity, negative = inhibition” value was inactive: 5.04%. With `O=C(c1cccnc1)N1CCC2(CC1)CC(N(Cc1ccc(F)cc1)C1CC1)CCO2` (configuration not stated) the Potency was inconclusive: 10 µM [inhibitor, single point]. For `COc1ccc(-c2cc(N3CCCN(C(=O)c4ccc(NC(C)=O)cc4)CC3)n[nH]2)cc1`, the Potency was inconclusive: 3.98 µM [inhibitor, single point]. With `CN1CC(=O)N(C2CCC2)Cc2c1ncnc2N1CCC(c2ccccc2)CC1` the Potency was inconclusive: 11.2 µM [inhibitor, single point]. With `Cc1nc(-c2cccs2)cc([C@H]2CN3CC[C@H]2C[C@@H]3CNS(=O)(=O)c2ccccc2)n1` the Potency was inconclusive: 7.08 µM [inhibitor, partial curve, poor fit]. In the case of `Cc1noc(C)c1S(=O)(=O)N1CCC(C(=O)N2CCN(c3cccc(C(F)(F)F)c3)CC2)CC1`, the Potency is reported as inconclusive: 17.8 µM [inhibitor, single point]. With `O=C(NC1CCCCC1)N1Cc2[nH]cnc2C[C@H]1c1nc(-c2cccc([N+](=O)[O-])c2)no1` the Potency was inconclusive: 1 µM [inhibitor, partial curve, poor fit]. With `O=C(NCCCN1CCN(c2ccccc2)CC1)c1ccc2nc(Cc3ccccc3)oc2c1` the Potency was inconclusive: 11.2 µM [inhibitor, single point]. For `Cc1ccc(Cn2c(C(C)NC(=O)c3ccccc3)nc3ccccc32)cc1` (configuration not stated), the Potency was inconclusive: 14.1 µM [inhibitor, single point]. For `Cc1ccc(-n2ncc(C(=O)NCCc3ccsc3)c2C2CCN(C(=O)OC(C)(C)C)CC2)cc1C`, the Potency was inconclusive: 6.31 µM [inhibitor, partial curve, poor fit]. For `COc1ccc(C2Cn3nnc(-c4noc(C5CC5)n4)c3CO2)cc1` (configuration not stated), the “outcome” value was “inactive”. In the case of `O=C(c1cn[nH]c1)N1CC2(C1)CN([S+](=O)([O-])c1ccc(OC(F)(F)F)cc1)CC2COc1ccccc1` (configuration not stated), the “activity, negative = inhibition” value is reported as inactive: -4.77%. For `Cc1cc(-c2cccc(OCCn3ccnc3)c2)ccn1`, the “activity, negative = inhibition” value was inactive: -10.1%. With `Cn1cc(CN2CCN(Cc3cccc(F)c3)CC2)ccc1=O` the “outcome” value was “inactive”. With `CCN(CC)CCNC(=O)c1ccc(Cn2c(=O)c3cccn3c3cccnc32)cc1` the Potency was inconclusive: 10 µM [inhibitor, single point]. With `COc1cccc(CN2CCC3(CC2)C(C(=O)O)CC(=O)N3C)c1OC` (configuration not stated) the “activity, negative = inhibition” value was inactive: -14.7%. For `COc1ccc2nc3oc(C(=O)NCc4ccccc4OC)cc3cc2c1`, the Potency was inconclusive: 12.6 µM [inhibitor, single point]. With `O=C(NC1CCCCC1)O[C@@H]1CO[C@H]2[C@@H]1OC[C@@H]2NC(=S)Nc1cccc2ccccc12` the “outcome” value was “inactive”. With `O=C(c1ccccc1F)N1CCc2nc(-c3ccccc3)nc(-c3ccc(Cl)cc3)c2C1` the Potency was inconclusive: 17.8 µM [inhibitor, single point]. For `COc1ccc(-c2noc(-c3nnn(-c4cc(C)ccc4C)c3N)n2)cc1`, the Potency was inconclusive: 6.31 µM [inhibitor, partial curve]. For `CC(C)CCN1CCC2(C1)C(=NC1CCCCC1)NC(=O)N2c1cccnc1` (configuration not stated), the “activity, negative = inhibition” value was inactive: 77.4%. For `C=Cc1ccc(Cn2c(C(=O)O)c(CNCc3cc(Br)ccc3OC)c3ccc(C)cc32)cc1`, the Potency was inconclusive: 3.55 µM [inhibitor, partial curve]. With `CCOc1ccccc1NC(=O)c1c(NCc2sccc2C)sc2c1CCCCC2` the Potency was active: 12.6 µM. For `COc1ccc(CC(=O)NCCc2csc(-c3ccc(Cl)cc3)n2)cc1`, the “activity, negative = inhibition” value was inactive: -12.7%. In the case of `CC(=O)NCCC(=O)N1Cc2ccccc2CC2(CCCN2CCc2ccc(C)cc2)C1` (configuration not stated), the Potency is reported as active: 8.91 µM. In the case of `O=C(Nc1cccnc1)[C@@H]1C[C@H](c2ccc(F)cc2)N(Cc2ccccc2Cl)C1`, the Potency is reported as inconclusive: 5.62 µM [inhibitor, full curve, poor fit]. For `CCn1nc(C)c(CCN(C)C(=O)Nc2cc(Cl)ccc2C)c1C`, the “activity, negative = inhibition” value was inactive: 44.8%. With `O[C@@H]1C[C@@H](c2nc(Cc3ccccc3)no2)N(CCCc2ccccc2)C1` the “outcome” value was “inactive [at 44.1 µM]”. In the case of `COc1ccc(-c2cc(CC3(NCC(C)(C)C)COC3)no2)cc1`, the “activity, negative = inhibition” value is reported as inactive: -9.04% [at 44.1 µM]. With `Cc1cc2ncc(C(=O)NCC(F)F)cn2n1` the “activity, negative = inhibition” value was inactive: 3.95% [at 44.1 µM]. For `COc1ccccc1Nc1cc(C(=O)NCc2cccs2)c2ccccc2n1`, the “activity, negative = inhibition” value was inactive: -9.37%. With `Cc1cc(NC(=O)Nc2nc3c(s2)CCCCCC3)ccc1Br` the Potency was inconclusive: 14.1 µM [inhibitor, single point]. For `CC(C)N1CCC(CCN2C(=O)[C@H]3CN(C)C[C@H]3C2=O)CC1`, the “activity, negative = inhibition” value was inactive: -19.7%. For `CN(Cc1ccc(OC(F)(F)F)cc1)Cc1cccn1C`, the “outcome” value was “inactive [at 44.1 µM]”. For `COc1ccccc1-c1ccnc(-n2ncc(C(=O)NCCc3cccnc3)c2C2CC2)n1`, the Potency was inconclusive: 8.91 µM [inhibitor, partial curve, poor fit]. For `CCc1nc(C)c(C(=O)N2C[C@@H](c3ccc(F)cc3)[C@@H]3[C@H]2C2CCN3CC2)o1`, the “activity, negative = inhibition” value was inactive: 4.91%. With `CNC(=O)CCn1ncc2cc(OCc3ccccc3-c3cc(Cl)ccc3OC)ccc21` the Potency was inconclusive: 4.47 µM [inhibitor, partial curve, poor fit]. With `O=C(CCc1nc2ccccc2[nH]1)N1C[C@@H](CO)[C@H](c2ccccn2)C1` the Potency was inconclusive: 0.398 µM [inhibitor, partial curve]. In the case of `Cc1ccc(CNC(=O)CCS(=O)(=O)c2cc(Br)cc3c2N(C(=O)C2CC2)CC3)cc1`, the Potency is reported as inconclusive: 14.1 µM [inhibitor, single point]. For `CNCc1c(F)cccc1F`, the “activity, negative = inhibition” value was inactive: -8.74% [at 44.1 µM]. With `N#Cc1cccc(CN2CC(CNc3ccccc3)C3(C2)CN(c2ccccc2)C3)c1` (configuration not stated) the Potency was inconclusive: 2.51 µM [inhibitor, full curve, poor fit]. With `CCN1CC2(CCN(C(=O)c3cc4c(cc3OC)CCC4)CC2)OC1=O` the “activity, negative = inhibition” value was inactive: 0.279%. In the case of `COc1cc(OC)cc(C(=O)N2CCC(Cc3nc(-c4ccc(F)cc4)no3)CC2)c1`, the Potency is reported as inconclusive: 10 µM [inhibitor, partial curve, poor fit]. With `c1cc(-c2noc([C@@H]3Cc4nc[nH]c4CN3CC3CCCCC3)n2)ccn1` the Potency was inconclusive: 1.26 µM [inhibitor, full curve, poor fit].
